# Reference: publication PMC4336329 (PLoS ONE, 2015)
# Out of some 310,000 compounds screened, about 14,000 (4.5%) showed an effect of 50% or more. Effects have a minus sign here. Some of the results follow.
# Molecular target: human ether-à-go-go-related gene (hERG) potassium channel (human, UniProt Q12809)
# Assay: primary screen, population patch clamp on CHO cells stably expressing hERG
# 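Also: peak tail current of the secondary pulse compared with the same well before compound.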
# Chain of human ether-à-go-go-related gene (hERG) potassium channel (Q12809 whole entry, looked up): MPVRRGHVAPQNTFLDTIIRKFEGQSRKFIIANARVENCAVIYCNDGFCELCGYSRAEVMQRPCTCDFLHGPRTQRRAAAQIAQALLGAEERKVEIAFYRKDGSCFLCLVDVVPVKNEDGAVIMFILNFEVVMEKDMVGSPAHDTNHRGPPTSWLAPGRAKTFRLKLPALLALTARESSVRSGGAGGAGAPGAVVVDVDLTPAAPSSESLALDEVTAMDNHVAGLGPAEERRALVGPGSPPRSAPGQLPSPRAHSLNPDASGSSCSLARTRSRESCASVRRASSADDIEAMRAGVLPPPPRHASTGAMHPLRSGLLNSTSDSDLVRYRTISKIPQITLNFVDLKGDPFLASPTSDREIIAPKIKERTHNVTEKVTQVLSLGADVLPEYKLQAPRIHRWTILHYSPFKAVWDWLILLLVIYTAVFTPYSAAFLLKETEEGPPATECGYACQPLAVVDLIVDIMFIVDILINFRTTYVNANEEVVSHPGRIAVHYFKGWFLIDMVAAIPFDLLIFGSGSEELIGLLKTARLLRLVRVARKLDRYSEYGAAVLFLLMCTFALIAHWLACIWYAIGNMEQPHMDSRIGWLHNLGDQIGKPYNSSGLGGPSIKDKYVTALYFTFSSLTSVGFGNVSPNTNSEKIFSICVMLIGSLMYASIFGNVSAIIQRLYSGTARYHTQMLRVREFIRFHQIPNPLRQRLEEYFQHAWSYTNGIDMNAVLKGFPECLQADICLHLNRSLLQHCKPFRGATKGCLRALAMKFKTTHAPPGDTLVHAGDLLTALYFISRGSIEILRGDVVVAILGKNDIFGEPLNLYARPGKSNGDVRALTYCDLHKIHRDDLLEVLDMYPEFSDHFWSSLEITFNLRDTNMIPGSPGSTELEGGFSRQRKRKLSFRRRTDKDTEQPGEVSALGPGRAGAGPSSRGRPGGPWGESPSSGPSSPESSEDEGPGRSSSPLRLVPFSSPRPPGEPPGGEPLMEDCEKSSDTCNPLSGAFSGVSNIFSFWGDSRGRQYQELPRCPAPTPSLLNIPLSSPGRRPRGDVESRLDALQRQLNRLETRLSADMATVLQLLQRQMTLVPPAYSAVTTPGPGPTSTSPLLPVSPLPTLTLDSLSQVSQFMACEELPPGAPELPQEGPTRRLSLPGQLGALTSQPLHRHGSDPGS
row,Compound,"hERG current change (%, negative = inhibition) at 10uM"
1,COC(=O)C1=C(C)NC(C)=C(C(=O)O[C@@H]2CCCN(Cc3ccccc3)C2)[C@@H]1c1cccc([N+](=O)[O-])c1.Cl,9.68%
2,CCCCC[C@H](O)/C=C/[C@H]1[C@H](O)CC(=O)[C@@H]1CCCCCCC(=O)O,0.0793%
3,O=C(O)CCCNc1ccc(S(=O)(=O)N2CCCCC2)cc1,5.06%
4,CCNS(=O)(=O)c1ccc(CCC(=O)N2CCOCC2)cc1,25.2%
5,O=C(CSc1nnc(-c2cnccn2)n1Cc1ccco1)c1ccc(Cl)cc1,-22%
6,CCCC(=O)N(Cc1cc(=O)[nH]c2ccccc12)c1ccccc1,-8%
7,NC(=O)CSc1n[nH]c(=O)n1CCc1ccccc1,16.9%
8,COc1cccc(NC(=O)CSc2nnc(Cc3ccc(OC)c(OC)c3)o2)c1,9.8%
9,O=C(NCc1ccccn1)C1CCC(=O)N1C1CCCCC1 (centres unmarked),1.07%
10,O=C(c1ccc(Cl)c(S(=O)(=O)N2CCOCC2)c1)N1CCN(c2ccccc2F)CC1,-15.1%
11,COC(C)(C)[C@]12CC(O)(c3ccccc3)ON1[C@H]1CCCCC1N2O (some centres unmarked),0.176%
12,CN(C)S(=O)(=O)c1ccc(C(=O)NCc2nnc(SCC(=O)c3ccccc3)o2)cc1,2.59%
13,COCCn1c(N)c(N(Cc2ccccc2)C(=O)c2ccc3ccccc3c2)c(=O)[nH]c1=O,7.55%
14,O=C1/C(=C/c2cccc(Cl)c2)SC(=S)N1CCC(=O)N1CCCCC1CCO (centres unmarked),19.1%
15,c1ccc(CSc2ccc(-c3ccccn3)nn2)cc1,13.5%
16,COCCn1c(SCc2ccccc2)nc2c1c(=O)[nH]c(=O)n2C,0.967%
17,C=CCn1c(COc2ccccc2F)nnc1SCC(=O)c1c[nH]c2ccccc12,-2.14%
18,S=C(Sc1ccc(Cl)cc1)Sc1ccc(Cl)cc1,16.4%
19,CN(C)CCCOc1ccc(C(C)(C)c2ccccc2)cc1.O=C(O)C(=O)O,-16.5%
20,COC(=O)c1ccc(-c2noc(CN(C)CCC3CCCCO3)n2)cc1 (centres unmarked),3.22%
21,Cc1c(NC(=O)C(C)OC(=O)/C=C/c2ccco2)c(=O)n(-c2ccccc2)n1C (centres unmarked),18.2%
22,COc1cc(NC(=O)CSc2nnc(-c3cc(C)on3)o2)cc(OC)c1,22%

row,Compound,"hERG current change (%, negative = inhibition) at 10uM"
1,C[C@]12CC[C@H]3C(=CCc4cc(O)ccc43)[C@@H]1CCC2=O,19.5%
2,CSc1ccc(/C=N/N2CCN(Cc3ccc(Cl)cc3)CC2)cc1,8.01%
3,O=C(Nc1cc([N+](=O)[O-])ccc1F)c1ccc2ccccc2c1,20.5%
4,Cc1ccccc1C(=O)NNC(=O)CSc1nnc(C)n1-c1ccccc1,18.6%
5,COc1ccc(N(CC(=O)NCC2CCCO2)C(=O)CCC(=O)Nc2cc(C)on2)cc1OC (centres unmarked),15.5%
6,COc1cc(-c2cc(C(=O)Nc3ccc(S(N)(=O)=O)cc3)c3ccccc3n2)cc(OC)c1OC,29.2%
7,Cc1nn(C)cc1/C=C/C(=O)c1ccccc1,-6.77%
8,Cc1cc(-c2nn(-c3ccccc3F)cc2CN2CCN(c3ccccn3)CC2)c(C)s1,18.6%
9,Cc1ccccc1NC(=O)CCSc1nnnn1-c1ccccc1,-5.33%
10,CCOC(=O)C1(Cc2ccccc2)CCN(Cc2cn[nH]c2-c2ccccc2)CC1,-28.8%
11,CCN(CC)N=Nc1ccc(S(=O)(=O)Nc2nc(C)cc(C)n2)cc1,10.3%
12,CC(=O)Nc1cccc(NC(=O)CSc2nnc(NC(=O)c3ccco3)s2)c1,4.45%
13,O=C(NCc1ccccn1)Nc1cccc([N+](=O)[O-])c1,11.6%
14,O=C(O)C1=C[C@@H](c2ccccc2)C[C@@H](OCCCCO)O1,8.4%
15,COc1ccc(-n2nc(C(=O)NCC(=O)N3CCCC(C)C3)c3ccccc3c2=O)cc1Cl (centres unmarked),1.04%
16,COc1ccc(C(=O)COC(=O)CN2C(=O)C3C4C=CC(C5CC45)C3C2=O)cc1 (centres unmarked),-36.7%
17,CCOC(=O)C1=NNC2(c3ccc(C)cc3)C(=O)N(c3ccc(Cl)cc3)C(=O)C12 (centres unmarked),-8.79%
18,O=C(CSc1nnc(-c2cccnc2)n1Cc1ccccc1)N1CCOCC1,4.78%
19,Cc1c(C(=O)O)cccc1-n1c(C)cc(C=O)c1C,21%
20,O=C(CCC(=O)NNC(=O)COc1ccccc1)NCc1ccccc1,16.3%
21,COc1ccc(NC(C)=O)cc1NC(=O)CSc1nnc(-c2cccnc2)n1C,8.23%
22,O=C(/C=C/c1ccccc1[N+](=O)[O-])NCCc1ccc(F)cc1,0.179%
